Some of the results follow.
T1: UNK ZnF1-3 (human, UniProt Q9C0B0 31-174)
T1 sequence: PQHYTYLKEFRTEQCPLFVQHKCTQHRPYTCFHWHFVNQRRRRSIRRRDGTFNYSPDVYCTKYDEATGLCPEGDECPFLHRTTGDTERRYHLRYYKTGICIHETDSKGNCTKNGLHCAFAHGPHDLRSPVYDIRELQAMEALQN

B1: 91030778_91034648_4396_CDS_ENSG00000140575_ENST00000268182|human|control|control (ssRNA)
RNA: GGGAGUUCUACAGUCCGACGAUCUACAGAUUUUGACUUUUUCAUCUUGUCAGGUGUUUUGGCAUCACGGAUAGCACGUCUCUGCAUGGCUCUCUGAUGUUCUGCUUCCUGUUCACUGGUGGCUGGUGUUUCUAGGAUUUCAGUCAACAGAGGAUUGAGCAUCA
B2: 142516462_142516582_550_CDS_ENSMUSG00000004591_ENSMUST00000043812|mouse|control|control (ssRNA)
RNA: GGGAGUUCUACAGUCCGACGAUCUUUUUUCAAAAUGUUGUCUACAUAAGCCAAAUUUUUCUUAUCUGUUGUAACUUUCCUCAGGUUUUCAGCUCCUUCUUUGAUUUUCAGUUCUUUCCUUAUUUCUCUCUUUAUUCGAUCCUUCAACAGAGGAUUGAGCAUCA
B3: chr3:9412954:9412955:+_ENSG00000134077_ENST00000452837|hu_mus|hu_hu_hu_mus_False|8_108 (ssRNA)
RNA: GGGAGUUCUACAGUCCGACGAUCGGUUGAUACAUCCUCUUUGAUGGCUGGAUUUUCAUAAUAGUCCAAGAUAUGUGAAUCUGAAGUGCUGCUGGCAUGCUUUUUCUUACCAUCUUUCUCAUCUGCUUUGACUUCUUGUCCACACAACAGAGGAUUGAGCAUCA
B4: chr13:14146135:14146136:-_ENSMUSG00000021302_ENSMUST00000170957|mus_mus|motif|central (ssRNA)
RNA: GGGAGUUCUACAGUCCGACGAUCAGUGUAUGCAAAAGAACCUACAUCCUCCAGGUACUGCACACAAUACUUUUUAAUAUCGGUAUUCUCUGUUCUCUGGCGCAGGAUGUUCUGUACCUGGGUGCUUUCUGGCCUUGACCAAAUCAACAGAGGAUUGAGCAUCA
B5: chr18:24770415:24770416:+_ENSMUSG00000024271_ENSMUST00000025120|mus_hu|motif|central (ssRNA)
RNA: GGGAGUUCUACAGUCCGACGAUCAUAAACAGGUCCUUCAUGGCCUUGAAGAUGCACUGCUUUUAAAAGCUGAUUAUCCUCGGUUUCCCAGUGAAUCACUUGAUUAUCAGAUCCUCCAGAAACUAAUUCAGUAGAAGGGGAGCCCAACAGAGGAUUGAGCAUCA
B6: chr9:88635815:88635816:+_ENSG00000135040_ENST00000361671|hu_mus|FALSE|FALSE (ssRNA)
RNA: GGGAGUUCUACAGUCCGACGAUCUCCUCCUGCUAAGAGCUUCAUAACCACAAAGUUGGGCUUGGCAACCUUCAGGAUUCUACUGACCUCACGGUCUGGAUUGGGGAUAUUUUCAAGGAUCAUUUUUGCCUGCUGAAAGUGCUUCAACAGAGGAUUGAGCAUCA
B7: chr4:132326513:132326514:+_ENSMUSG00000028884_ENSMUST00000102561|mus_mus|FALSE|FALSE (ssRNA)
RNA: GGGAGUUCUACAGUCCGACGAUCAAUAGUGACCUGUGAAAUCUCGACAUCUCCAAUUCUGAACACUUCAUCAGUCAGAGUAGCAGAAAGCAGCUGGGAUAUGGUACAGGGCACAAUAUGCUGGGCUCGGACUCUCGAUUUCUUCAACAGAGGAUUGAGCAUCA
B8: 2886273_2895739_470_CDS_ENSG00000087274_ENST00000398129|human|control|control (ssRNA)
RNA: GGGAGUUCUACAGUCCGACGAUCUGUGAUAUGAUUGUAGAUAAGCUGAGACCACCCAAAGAGAUCUGCUAGUCUAUAAAACGCUGCCAAUUUACACCGUAAUAACUUCUCUCCUUUGUCAUACGCAAUAGAAUCAGAUCCUCUCAACAGAGGAUUGAGCAUCA
B9: chrX:69798090:69798091:-_ENSMUSG00000031343_ENSMUST00000055966|mus_mus|mus_mus_mus_hu_False|48_78 (ssRNA)
RNA: GGGAGUUCUACAGUCCGACGAUCAAGUCCCCGGGUUCUUGUCGUCUUGAUUCCCCUUGGCUAGUGGUUCCAGGGAGAAUAUUAAUCAGGAGAAGAAUCCCAAGGCUGGUCAUGUAACAGUGACUUGUUUGUGUGAUUAUCAUCCAACAGAGGAUUGAGCAUCA
B10: chr12:42180722:42180723:-_ENSMUSG00000036295_ENSMUST00000043884|mus_hu|mus_mus_mus_hu_True|48_108 (ssRNA)
RNA: GGGAGUUCUACAGUCCGACGAUCCUGUAGGAGCAGAAUCUGUGUGUUAGCUGGCAAUCUGGCUGGGAAAGUUAAAAGACCUAAAUCAUUACAGUCCACUGUAGAUGCUUCCAUAUAAAUGGAUCUGGGUGUAAACCAAGGCCUCAACAGAGGAUUGAGCAUCA
B11: chr7:56126341:56126342:+_ENSG00000146731_ENST00000540286|hu_mus|hu_hu_hu_mus_True|8_68 (ssRNA)
RNA: GGGAGUUCUACAGUCCGACGAUCCAUGUUUCUCCUCUUGGCUCUGCGCAGAGCUACGAUCCCUUCUUUUGAAAGAGCAUCUAAGGAAAAGGGGUCAAUCCCCUUUUGAUUAAUAACGACAAAUCCUUUAUCUGAAUCACCACACAACAGAGGAUUGAGCAUCA
B12: chr7:75932113:75932114:+_ENSG00000106211_ENST00000248553|hu_hu|hu_hu_hu_mus_False|18_108 (ssRNA)
RNA: GGGAGUUCUACAGUCCGACGAUCCUGCGACCACUCCUCGGGCAACCGGGGCACCCCGAAAGCUUGAUCGAAGAGGCGGCUGUGUGCAGGGUACCAGUCCCGGAAUGGUUCCCAGCUGCCCCGCAGGAGCAGCGAGAAGGGCACCAACAGAGGAUUGAGCAUCA
B13: chr7:54823571:54823572:-_ENSG00000132432_ENST00000352861|hu_mus|hu_hu_hu_mus_False|8_98 (ssRNA)
RNA: GGGAGUUCUACAGUCCGACGAUCUCCCAUGAUAGCAAAUCCUAUUGCUGUAGCCAUGGCAAUCUUCUGGAAUUCUUUUCUGUCGGGUUUGGUGCAUCUUUUAACCAGCCGAAUUGAGUCCUUUACAAACUGCCGACUGGGCUCCAACAGAGGAUUGAGCAUCA
B14: chr6:72301320:72301321:+_ENSMUSG00000058706_ENSMUST00000077783|mus_mus|motif|central (ssRNA)
RNA: GGGAGUUCUACAGUCCGACGAUCUCUUUGAGGACCACAUAAACACAUAAAAGGCCUCUGCAGAACACUUUGUUCAUCGGGCGGUUCCUUCAUCAAGAAGUGGGAAUAACGGCAAAUUUGUAGGUGUCGGGUCCUCAGAUUCUUCAACAGAGGAUUGAGCAUCA
B15: chr1:122009976:122009977:-_ENSMUSG00000026385_ENSMUST00000027634|mus_hu|FALSE|FALSE (ssRNA)
RNA: GGGAGUUCUACAGUCCGACGAUCUUUAAUUGAUUUCAGAUAAAAACUACUCAAGGAAAGUCAGUAAUCGUUUUAGCCCCUAAUCUGUUAGAGCCGUAUGGUGAGCAGCCUUGAGUAGCUGGUUUAACUGGUUAUUUUCCCGAACAACAGAGGAUUGAGCAUCA
B16: chr2:91460361:91460362:+_ENSMUSG00000040549_ENSMUST00000099716|mus_hu|FALSE|FALSE (ssRNA)
RNA: GGGAGUUCUACAGUCCGACGAUCAUACACUAGGCCUGCUGAGGCCAUUUUAAACUAUGAGGACUUCUAGUUUAGUAAACUAAAGCUGCAGGGUGCCGGGGGAGUGGGGCAGCUUCAUUUGCGACUGCUCUUUAUUCUCUCCAGCAACAGAGGAUUGAGCAUCA
B17: 118501947_118502067_1989_CDS_ENSG00000019144_ENST00000356063|human|control|control (ssRNA)
RNA: GGGAGUUCUACAGUCCGACGAUCAAGGCCUCGUGAGGGCCUCCGGCCUGCCAGUGCCAAUGCUGCGGUGGCCUCCCCAAUGCUGGGAAGCUCCCCAGCCUCAGGUCCCCCAUCAGCCCGGCUGUAUUCGGCACACAGGUUCAGCAACAGAGGAUUGAGCAUCA
B18: chr7:141450121:141450122:+_ENSG00000106028_ENST00000265304|hu_mus|hu_hu_hu_mus_True|38_108 (ssRNA)
RNA: GGGAGUUCUACAGUCCGACGAUCUCAUCCUUUCUACGCCUUUUCUUUUGUCUGGUCACUCAGAAAUAUAAUGUUAUCAGCUAUGAUUGUUGUUGCUUGUCGCCUCACAUUGUUUUUAUCCAUGUACUCGCCAUAGUCCACUUUCAACAGAGGAUUGAGCAUCA
B19: chr4:148551591:148551592:-_ENSMUSG00000063077_ENSMUST00000060537|mus_hu|mus_mus_mus_hu_False|8_28 (ssRNA)
RNA: GGGAGUUCUACAGUCCGACGAUCACCUGACAAAAUUAAAUAUCCCUGUAAAUUAGACAAUAAGCAGCAGGCAACAAAGUCUUUGCUUUGGAAUAUGUGCCAGGAAAAAUCAUGUUUUUUUUAGAUCACACCUUUCAGUUCACACAACAGAGGAUUGAGCAUCA
B20: chr9:131455196:131455197:+_ENSG00000119335_ENST00000372688|hu_hu|motif|central (ssRNA)
RNA: GGGAGUUCUACAGUCCGACGAUCAAAUUCUUUGGAGAGAACUUUAUUUUCAAAGUAAGGAUUUUCAUCAAAAUAAAAAUCGGUUCUGUAACCUGAUUUAAUAUCUUCAAAUUCUGUCACUUCAACUCUGGUCAAAUAAUGCAGCAACAGAGGAUUGAGCAUCA
B21: chr8:95500983:95500984:-_ENSG00000164944_ENST00000437199|hu_hu|hu_hu_hu_mus_True|18_88 (ssRNA)
RNA: GGGAGUUCUACAGUCCGACGAUCAGAACACAUCUAUCGAGUAAAGGGAGCGUACAUACGGCCUCUACCACUGCCUCCACUAACAAACUUUCCUCUCGAGCCUCCACUGCCGCUAUUUUGCACUAGCCAGGACGGUCCCAGGCCCAACAGAGGAUUGAGCAUCA
B22: chr15:52844276:52844277:-_ENSG00000128989_ENST00000249822|hu_mus|FALSE|FALSE (ssRNA)
RNA: GGGAGUUCUACAGUCCGACGAUCAUCCGGGGCUGCAGCAGGAAGCUGCUUGUUCUUCAUCUUUGCUUUUGCCAUGUUGUAGUCCCCAGAAUCAAAAUACUUUUGCCCUUUCUGCAAUCUUUUCCUUAAAAAAUCAGACCCUCCCAACAGAGGAUUGAGCAUCA

The binders below were run against T1, UNK ZnF1-3 (assay: nsRBNS (natural sequence RNA bind-n-seq); RBNS binding buffer (assumed for nsRBNS): 25 mM Tris pH 7.5, 150 mM KCl, 3 mM MgCl2, 0.01% Triton X-100, 500 ug/ml BSA, 20 U/ml SUPERase-In, 4 C; UNK is unkempt and MSI1 is Musashi-1; names of the RNAs are library labels; protein concentration not given here; high values mean tight binding).

**Q.** For B1, which binding signal is on record?
**A.** 0.352 enrichment R

**Q.** B2 was tested. Which binding signal did it give?
**A.** 0.194 enrichment R

**Q.** For B3, which binding signal is on record?
**A.** 0.388 enrichment R

**Q.** B4 was tested. Which binding signal did it give?
**A.** 0.571 enrichment R

**Q.** With B5 as the binder, how does the binding signal read?
**A.** 0.853 enrichment R

**Q.** For B6, which binding signal is on record?
**A.** 1.18 enrichment R

**Q.** Which binding signal does the source give for B7 here?
**A.** 0.931 enrichment R

**Q.** Which binding signal does the source give for B8 here?
**A.** 1.29 enrichment R

**Q.** B9 was tested. Which binding signal did it give?
**A.** 0.648 enrichment R

**Q.** With B10 as the binder, how does the binding signal read?
**A.** 1.09 enrichment R

**Q.** How did the binding signal turn out when B11 was run?
**A.** 1.67 enrichment R

**Q.** For B12, which binding signal is on record?
**A.** 0.914 enrichment R

**Q.** Which binding signal does the source give for B13 here?
**A.** 0.597 enrichment R

**Q.** Which binding signal does the source give for B14 here?
**A.** 0.821 enrichment R

**Q.** B15 was tested. Which binding signal did it give?
**A.** 0.61 enrichment R

**Q.** Which binding signal does the source give for B16 here?
**A.** 0.635 enrichment R

**Q.** B17 was tested. Which binding signal did it give?
**A.** 0.995 enrichment R

**Q.** B18 was tested. Which binding signal did it give?
**A.** 0.386 enrichment R

**Q.** Which binding signal does the source give for B19 here?
**A.** 1.02 enrichment R

**Q.** With B20 as the binder, how does the binding signal read?
**A.** 0.575 enrichment R

**Q.** Which binding signal does the source give for B21 here?
**A.** 1.41 enrichment R

**Q.** B22 was tested. Which binding signal did it give?
**A.** 0.637 enrichment R

Reference: publication PMC12136788
